# In the supplement of paper PMC8728848:
# The other results are listed elsewhere or left out.
# Tests used:
# Experiment in all cases: glycan array binding signal (z-score within array); higher = stronger binding
# Details in all cases: glycan notation: IUPAC condensed, linker removed
# GalNAc6S(b1-4)GlcNAc = molecular target: GalNAc6S(b1-4)GlcNAc
# Procedure, shortened: (§1)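 The binding signal is a Z-score computed within each array and averaged over linkers. Arrays of the same protein sequence at different concentrations or buffers were also averaged together. Data originate from 3228 arrays in the Consortium for Functional Glycomics database, kept only where the protein sequence was available.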
# Glc(a1-4)Glc = molecular target: Glc(a1-4)Glc
# Procedure, shortened: as §1
# [1] = molecular target: Glc(a1-4)Glc(a1-4)Glc(a1-4)Glc
# Procedure, shortened: as §1
# Glc(a1-6)Glc(a1-6)Glc = molecular target: Glc(a1-6)Glc(a1-6)Glc
# Procedure, shortened: as §1
# [2] = molecular target: Glc(a1-6)Glc(a1-6)Glc(a1-6)Glc
# Procedure, shortened: as §1
# Glc(b1-4)Glc = molecular target: Glc(b1-4)Glc
# Procedure, shortened: as §1
# Glc(b1-6)Glc = molecular target: Glc(b1-6)Glc
# Procedure, shortened: as §1
# GlcA(b1-3)Gal = molecular target: GlcA(b1-3)Gal
# Procedure, shortened: as §1
# GlcA(b1-3)GlcNAc = molecular target: GlcA(b1-3)GlcNAc
# Procedure, shortened: as §1
# GlcA(b1-6)Gal = molecular target: GlcA(b1-6)Gal
# Procedure, shortened: as §1
# [3] = molecular target: GlcA3S(b1-3)Gal(b1-4)GlcNAc(b1-2)Man
# Procedure, shortened: as §1
# [4] = molecular target: GlcA3S(b1-3)Gal(b1-4)GlcNAc(b1-3)Gal(b1-4)Glc
# Procedure, shortened: as §1
# [5] = molecular target: GlcNAc(a1-3)Gal(b1-4)GlcNAc
# Procedure, shortened: as §1
# [6] = molecular target: GlcNAc(a1-4)Gal(b1-3)GlcNAc
# Procedure, shortened: as §1
# [7] = molecular target: GlcNAc(a1-4)Gal(b1-4)GalNAc
# Procedure, shortened: as §1
# [8] = molecular target: GlcNAc(a1-4)Gal(b1-4)GlcNAc
# Procedure, shortened: as §1
# [9] = molecular target: GlcNAc(a1-4)Gal(b1-4)GlcNAc(b1-3)Gal(b1-4)Glc
# Procedure, shortened: as §1
# [10] = molecular target: GlcNAc(a1-4)Gal(b1-4)GlcNAc(b1-3)Gal(b1-4)GlcNAc
# Procedure, shortened: as §1
# [11] = molecular target: GlcNAc(a1-4)Gal(b1-4)GlcNAc(b1-3)Gal(b1-4)GlcNAc(b1-3)Gal(b1-4)GlcNAc
# Procedure, shortened: as §1
# [12] = molecular target: GlcNAc(a1-4)Gal(b1-4)GlcNAc(b1-3)Gal(b1-4)[Fuc(a1-3)]GlcNAc(b1-3)Gal(b1-4)[Fuc(a1-3)]GlcNAc
# Procedure, shortened: as §1
# [13] = molecular target: GlcNAc(a1-6)Gal(b1-4)GlcNAc
# Procedure, shortened: as §1
# [14] = molecular target: GlcNAc(b1-2)Gal(b1-3)GalNAc
# Procedure, shortened: as §1
# [15] = molecular target: GlcNAc(b1-2)Man(a1-3)[GlcNAc(b1-2)Man(a1-6)]Man(b1-4)GlcNAc(b1-4)GlcNAc
# Procedure, shortened: as §1
# [16] = molecular target: GlcNAc(b1-2)Man(a1-3)[GlcNAc(b1-2)Man(a1-6)]Man(b1-4)GlcNAc(b1-4)[Fuc(a1-6)]GlcNAc
# Procedure, shortened: as §1
# [17] = molecular target: GlcNAc(b1-2)Man(a1-3)[GlcNAc(b1-4)][GlcNAc(b1-2)Man(a1-6)]Man(b1-4)GlcNAc(b1-4)GlcNAc
# Procedure, shortened: as §1
# [18] = molecular target: GlcNAc(b1-2)Man(a1-3)[GlcNAc(b1-4)][GlcNAc(b1-2)Man(a1-6)]Man(b1-4)GlcNAc(b1-4)[Fuc(a1-6)]GlcNAc
# Procedure, shortened: as §1
# [19] = molecular target: GlcNAc(b1-2)[GlcNAc(b1-4)]Man(a1-3)[GlcNAc(b1-2)Man(a1-6)]Man(b1-4)GlcNAc(b1-4)GlcNAc
# Procedure, shortened: as §1
# [20] = molecular target: GlcNAc(b1-2)[GlcNAc(b1-4)]Man(a1-3)[GlcNAc(b1-4)][GlcNAc(b1-2)Man(a1-6)]Man(b1-4)GlcNAc(b1-4)GlcNAc
# Procedure, shortened: as §1
# [21] = molecular target: GlcNAc(b1-2)[GlcNAc(b1-4)]Man(a1-3)[GlcNAc(b1-4)][GlcNAc(b1-2)[GlcNAc(b1-6)]Man(a1-6)]Man(b1-4)GlcNAc(b1-4)GlcNAc
# Procedure, shortened: as §1
# [22] = molecular target: GlcNAc(b1-2)[GlcNAc(b1-4)]Man(a1-3)[GlcNAc(b1-4)][GlcNAc(b1-2)[GlcNAc(b1-6)]Man(a1-6)]Man(b1-4)GlcNAc(b1-4)[Fuc(a1-6)]GlcNAc
# Procedure, shortened: as §1
# [23] = molecular target: GlcNAc(b1-2)[GlcNAc(b1-6)]Man(a1-6)[GlcNAc(b1-2)Man(a1-3)]Man(b1-4)GlcNAc(b1-4)GlcNAc
# Procedure, shortened: as §1
# [24] = molecular target: GlcNAc(b1-2)[GlcNAc(b1-6)]Man(a1-6)[GlcNAc(b1-2)Man(a1-3)]Man(b1-4)GlcNAc(b1-4)[Fuc(a1-6)]GlcNAc
# Procedure, shortened: as §1
# [25] = molecular target: GlcNAc(b1-2)[GlcNAc(b1-6)]Man(a1-6)[GlcNAc(b1-4)][GlcNAc(b1-2)Man(a1-3)]Man(b1-4)GlcNAc(b1-4)GlcNAc
# Procedure, shortened: as §1
# GlcNAc(b1-3)Fuc = molecular target: GlcNAc(b1-3)Fuc
# Procedure, shortened: as §1
# GlcNAc(b1-3)Gal = molecular target: GlcNAc(b1-3)Gal
# Procedure, shortened: as §1
# [26] = molecular target: GlcNAc(b1-3)Gal(b1-3)GalNAc
# Procedure, shortened: as §1
# GlcNAc(b1-3)Gal(b1-4)Glc = molecular target: GlcNAc(b1-3)Gal(b1-4)Glc
# Procedure, shortened: as §1
# [27] = molecular target: GlcNAc(b1-3)Gal(b1-4)GlcNAc
# Procedure, shortened: as §1
# [28] = molecular target: GlcNAc(b1-3)Gal(b1-4)GlcNAc(b1-2)Man(a1-3)[GlcNAc(b1-3)Gal(b1-4)GlcNAc(b1-2)Man(a1-6)]Man(b1-4)GlcNAc(b1-4)GlcNAc
# Procedure, shortened: as §1
# [29] = molecular target: GlcNAc(b1-3)Gal(b1-4)GlcNAc(b1-2)Man(a1-3)[GlcNAc(b1-3)Gal(b1-4)GlcNAc(b1-2)Man(a1-6)]Man(b1-4)GlcNAc(b1-4)[Fuc(a1-6)]GlcNAc
# Procedure, shortened: as §1
# [30] = molecular target: GlcNAc(b1-3)Gal(b1-4)GlcNAc(b1-2)[GlcNAc(b1-3)Gal(b1-4)GlcNAc(b1-6)]Man(a1-6)[GlcNAc(b1-3)Gal(b1-4)GlcNAc(b1-2)Man(a1-3)]Man(b1-4)GlcNAc(b1-4)GlcNAc
# Procedure, shortened: as §1
# [31] = molecular target: GlcNAc(b1-3)Gal(b1-4)GlcNAc(b1-3)Gal(b1-4)GlcNAc
# Procedure, shortened: as §1
# [32] = molecular target: GlcNAc(b1-3)Gal(b1-4)GlcNAc(b1-3)Gal(b1-4)GlcNAc(b1-2)Man(a1-3)[GlcNAc(b1-3)Gal(b1-4)GlcNAc(b1-3)Gal(b1-4)GlcNAc(b1-2)Man(a1-6)]Man(b1-4)GlcNAc(b1-4)GlcNAc
# Procedure, shortened: as §1
# [33] = molecular target: GlcNAc(b1-3)Gal(b1-4)GlcNAc(b1-3)Gal(b1-4)GlcNAc(b1-2)Man(a1-3)[GlcNAc(b1-3)Gal(b1-4)GlcNAc(b1-3)Gal(b1-4)GlcNAc(b1-2)Man(a1-6)]Man(b1-4)GlcNAc(b1-4)[Fuc(a1-6)]GlcNAc
# Procedure, shortened: as §1
# [34] = molecular target: GlcNAc(b1-3)Gal(b1-4)GlcNAc(b1-3)Gal(b1-4)GlcNAc(b1-2)[GlcNAc(b1-3)Gal(b1-4)GlcNAc(b1-3)Gal(b1-4)GlcNAc(b1-6)]Man(a1-6)[GlcNAc(b1-3)Gal(b1-4)GlcNAc(b1-3)Gal(b1-4)GlcNAc(b1-2)Man(a1-3)]Man(b1-4)GlcNAc(b1-4)[Fuc(a1-6)]GlcNAc
# Procedure, shortened: as §1
binder,measurement,setting,value
"GNA (Galanthus nivalis), P30617 (protein) MAKASLLILAAIFLGVITPSCLSDNILYSGETLSTGEFLNYGSFVFIMQEDCNLVLYDVDKPIWATNTGGLSRSCFLSMQTDGNLVVYNPSNKPIWASNTGGQNGNYVCILQKDRNVVIYGTDRWATGTHTGLVGIPASPPSEKYPTAGKIKLVTAK",glycan array binding signal (z-score),GalNAc6S(b1-4)GlcNAc,-0.199
same,glycan array binding signal (z-score),Glc(a1-4)Glc,-0.148
same,glycan array binding signal (z-score),[1],-0.166
same,glycan array binding signal (z-score),Glc(a1-6)Glc(a1-6)Glc,-0.217
same,glycan array binding signal (z-score),[2],-0.155
same,glycan array binding signal (z-score),Glc(b1-4)Glc,-0.26
same,glycan array binding signal (z-score),Glc(b1-6)Glc,-0.237
same,glycan array binding signal (z-score),GlcA(b1-3)Gal,-0.157
same,glycan array binding signal (z-score),GlcA(b1-3)GlcNAc,-0.19
same,glycan array binding signal (z-score),GlcA(b1-6)Gal,-0.077
same,glycan array binding signal (z-score),[3],-0.182
same,glycan array binding signal (z-score),[4],-0.144
same,glycan array binding signal (z-score),[5],-0.288
same,glycan array binding signal (z-score),[6],-0.095
same,glycan array binding signal (z-score),[7],-0.139
same,glycan array binding signal (z-score),[8],-0.099
same,glycan array binding signal (z-score),[9],-0.149
same,glycan array binding signal (z-score),[10],-0.235
same,glycan array binding signal (z-score),[11],-0.123
same,glycan array binding signal (z-score),[12],-0.002
same,glycan array binding signal (z-score),[13],-0.193
same,glycan array binding signal (z-score),[14],-0.205
same,glycan array binding signal (z-score),[15],1.14
same,glycan array binding signal (z-score),[16],-0.06
same,glycan array binding signal (z-score),[17],-0.171
same,glycan array binding signal (z-score),[18],-0.164
same,glycan array binding signal (z-score),[19],0.353
same,glycan array binding signal (z-score),[20],-0.183
same,glycan array binding signal (z-score),[21],-0.159
same,glycan array binding signal (z-score),[22],-0.185
same,glycan array binding signal (z-score),[23],-0.165
same,glycan array binding signal (z-score),[24],-0.156
same,glycan array binding signal (z-score),[25],-0.185
same,glycan array binding signal (z-score),GlcNAc(b1-3)Fuc,-0.16
same,glycan array binding signal (z-score),GlcNAc(b1-3)Gal,-0.3
same,glycan array binding signal (z-score),[26],-0.184
same,glycan array binding signal (z-score),GlcNAc(b1-3)Gal(b1-4)Glc,-0.212
same,glycan array binding signal (z-score),[27],-0.254
same,glycan array binding signal (z-score),[28],0.24
same,glycan array binding signal (z-score),[29],0.56
same,glycan array binding signal (z-score),[30],-0.068
same,glycan array binding signal (z-score),[31],-0.196
same,glycan array binding signal (z-score),[32],-0.01
same,glycan array binding signal (z-score),[33],0.014
same,glycan array binding signal (z-score),[34],-0.072
